# Data: the supplement of paper PMC4604168 (melanoma cell lines)
# Some of the results follow. Single values are uncertain, as repeats are few or missing.
# Assays:
# Assay in all cases: cell count relative to DMSO control; melanoma cells; higher = more viable cells
# Details in all cases: library dose: low library concentration; 72 h
# MZ2-MEL = system: MZ2-MEL
# MeWo = system: MeWo
# RPMI7951 = system: RPMI7951
# RVH-421 = system: RVH-421
# SkMel28 = system: SkMel28
# SkMel2 = system: SkMel2
# SkMel30 = system: SkMel30
# SkMel5 = system: SkMel5
# UACC257 = system: UACC257
# UACC62 = system: UACC62
# 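Also: cell number obtained by counting DAPI-stained nuclei in high-throughput microscope images with image analysis software, screen run in 1,536-well plates.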
Compound,cell count (MZ2-MEL),cell count (MeWo),cell count (RPMI7951),cell count (RVH-421),cell count (SkMel28),cell count (SkMel2),cell count (SkMel30),cell count (SkMel5),cell count (UACC257),cell count (UACC62)
"Cc1cc(N2CCOCC2)cc2[nH]c(-c3c(NC[C@@H](O)c4cccc(Cl)c4)cc[nH]c3=O)nc12 + CN(NC(=O)CC(=O)NN(C)C(=S)c1ccccc1)C(=S)c1ccccc1 [STA4783] (first compound 0.2 µM, partner dose 0.006 µM)",115%,99.5%,114%,105%,116%,76.5%,65%,98.6%,97.7%,92.9%
"O=C(O)[C@@H]1[O][Sb](=[O])([O][Sb]2(=[O])[O][C@H]([C@H](O)CO)[C@H](O)[C@H](C(=O)O)[O]2)[O][C@H]([C@H](O)CO)[C@@H]1O (stereo not given in full) [stibogluconate] + CO[C@@H]1[C@H](N(C)C(=O)c2ccccc2)C[C@H]2O[C@]1(C)n1c3ccccc3c3c4c(c5c6ccccc6n2c5c31)C(=O)NC4 [Midostaurin] (first compound 2 µM, partner dose 0.08 µM)",89%,95.2%,68.8%,93%,92.5%,97.8%,124%,103%,117%,104%
"O=C(Nc1cc(C(F)(F)F)cc(C(F)(F)F)c1)c1cc(Cl)ccc1O + Cc1cc(N2CCOCC2)cc2[nH]c(-c3c(NC[C@@H](O)c4cccc(Cl)c4)cc[nH]c3=O)nc12 [BMS536924] (first compound 0.016 µM, partner dose 0.2 µM)",107%,87.2%,97.3%,132%,69.2%,86.4%,91.8%,83.6%,73.3%,100%
"O=C(Nc1cc(C(F)(F)F)cc(C(F)(F)F)c1)c1cc(Cl)ccc1O + O=C(O)C(=O)Nc1sc2c(c1C(=O)O)CCNC2 [TCS401] (first compound 0.016 µM, partner dose 1.66667 µM)",101%,104%,102%,89.4%,93.4%,106%,105%,90.9%,87.9%,93.4%
"O=C(O)[C@@H]1[O][Sb](=[O])([O][Sb]2(=[O])[O][C@H]([C@H](O)CO)[C@H](O)[C@H](C(=O)O)[O]2)[O][C@H]([C@H](O)CO)[C@@H]1O (stereo not given in full) [stibogluconate] + O=c1cc(-c2cccc3c2Sc2ccccc2S3)oc(N2CCOCC2)c1 [KU55933] (first compound 2 µM, partner dose 1 µM)",97.7%,98.6%,114%,120%,97%,92.5%,98.3%,89.2%,93.9%,104%
"Cn1nnc2c(C(N)=O)ncn2c1=O [temozolomide] + CC(C)(C)c1cnc(CSc2cnc(NC(=O)C3CCNCC3)s2)o1 [SNS-032] (first compound 2 µM, partner dose 0.01 µM)",96.3%,101%,83.4%,104%,74.7%,110%,128%,112%,88.5%,66.3%
"O=C(O)[C@@H]1[O][Sb](=[O])([O][Sb]2(=[O])[O][C@H]([C@H](O)CO)[C@H](O)[C@H](C(=O)O)[O]2)[O][C@H]([C@H](O)CO)[C@@H]1O (stereo not given in full) [stibogluconate] + C=CCn1c(=O)c2cnc(Nc3ccc(N4CCN(C)CC4)cc3)nc2n1-c1cccc(C(C)(C)O)n1 [MK1775] (first compound 2 µM, partner dose 0.02 µM)",102%,90.6%,82.5%,89.7%,79.6%,99%,94.1%,95.6%,72.5%,98.1%
"O=C(O)[C@@H]1[O][Sb](=[O])([O][Sb]2(=[O])[O][C@H]([C@H](O)CO)[C@H](O)[C@H](C(=O)O)[O]2)[O][C@H]([C@H](O)CO)[C@@H]1O (stereo not given in full) [stibogluconate] + Oc1cc(-c2nc(-c3ccccc3)[nH]c2-c2ccncc2)ccc1Cl [L779450] (first compound 2 µM, partner dose 0.2 µM)",79.2%,73.7%,84.1%,77.7%,71.4%,79%,88.7%,102%,81.3%,53.1%
"O=C(Nc1cc(C(F)(F)F)cc(C(F)(F)F)c1)c1cc(Cl)ccc1O + O=C(Nc1ccccc1)c1cc([N+](=O)[O-])ccc1Cl [GW9662] (first compound 0.016 µM, partner dose 2 µM)",92.4%,106%,110%,101%,90.4%,87.6%,87.2%,94.4%,65.9%,72.5%
"O=C(O)c1ccc2c(c1)nc(Nc1cccc(Cl)c1)c1ccncc12 + O=C(O)C(=O)Nc1sc2c(c1C(=O)O)CCNC2 [TCS401] (first compound 0.4 µM, partner dose 1.66667 µM)",86.3%,101%,102%,108%,89.3%,101%,91%,104%,70.9%,96.2%
"O=C(O)c1ccc2c(c1)nc(Nc1cccc(Cl)c1)c1ccncc12 + CN(NC(=O)CC(=O)NN(C)C(=S)c1ccccc1)C(=S)c1ccccc1 [STA4783] (first compound 0.4 µM, partner dose 0.006 µM)",107%,101%,112%,93%,115%,100%,94.5%,122%,101%,107%
"O=C(O)[C@@H]1[O][Sb](=[O])([O][Sb]2(=[O])[O][C@H]([C@H](O)CO)[C@H](O)[C@H](C(=O)O)[O]2)[O][C@H]([C@H](O)CO)[C@@H]1O (stereo not given in full) [stibogluconate] + O=C1NC(=O)/C(=C/c2ccc(-c3ccc(F)cc3O)o2)S1 [AS252424] (first compound 2 µM, partner dose 1 µM)",93.1%,98.1%,82.8%,117%,102%,101%,83.7%,107%,109%,105%
"O=C(O)[C@@H]1[O][Sb](=[O])([O][Sb]2(=[O])[O][C@H]([C@H](O)CO)[C@H](O)[C@H](C(=O)O)[O]2)[O][C@H]([C@H](O)CO)[C@@H]1O (stereo not given in full) [stibogluconate] + Cn1cc(/C=C2\C(=O)Nc3cccnc32)c2ccccc21 [GW441756] (first compound 2 µM, partner dose 0.4 µM)",95.4%,100%,92.4%,98.8%,107%,111%,92.1%,90%,84.3%,94.8%
"O=C(O)c1ccc2c(c1)nc(Nc1cccc(Cl)c1)c1ccncc12 + CC1(C)NC(=O)N(c2ccc([N+](=O)[O-])c(C(F)(F)F)c2)C1=O [nilutamide] (first compound 0.4 µM, partner dose 1 µM)",98.5%,96.2%,129%,110%,82.6%,91.9%,79.3%,110%,98.2%,92.7%
"O=C(O)[C@@H]1[O][Sb](=[O])([O][Sb]2(=[O])[O][C@H]([C@H](O)CO)[C@H](O)[C@H](C(=O)O)[O]2)[O][C@H]([C@H](O)CO)[C@@H]1O (stereo not given in full) [stibogluconate] + COc1cc(N2CCC(N3CCN(C)CC3)CC2)ccc1Nc1ncc(Cl)c(Nc2ccccc2S(=O)(=O)C(C)C)n1 [NVP-TAE684] (first compound 2 µM, partner dose 0.08 µM)",95.2%,77.2%,98.1%,63.1%,99.3%,94.2%,99.6%,90.8%,75.2%,106%
"O=C(Nc1cc(C(F)(F)F)cc(C(F)(F)F)c1)c1cc(Cl)ccc1O + NC(=O)Nc1cc(-c2cccc(F)c2)sc1C(=O)N[C@H]1CCCNC1 [AZD7762] (first compound 0.016 µM, partner dose 0.02 µM)",101%,92.3%,83%,102%,107%,106%,138%,108%,114%,91.9%
"O=C(O)[C@@H]1[O][Sb](=[O])([O][Sb]2(=[O])[O][C@H]([C@H](O)CO)[C@H](O)[C@H](C(=O)O)[O]2)[O][C@H]([C@H](O)CO)[C@@H]1O (stereo not given in full) [stibogluconate] + NC(=O)Nc1cc(-c2cccc(F)c2)sc1C(=O)N[C@H]1CCCNC1 [AZD7762] (first compound 2 µM, partner dose 0.02 µM)",100%,103%,94.4%,88.8%,93.7%,111%,101%,111%,110%,104%
"O=C(Nc1cc(C(F)(F)F)cc(C(F)(F)F)c1)c1cc(Cl)ccc1O + COc1ccc(-c2ccc3c(N4CCOCC4)nc(N4C[C@@H](C)O[C@@H](C)C4)nc3n2)cc1CO [KU0063794] (first compound 0.016 µM, partner dose 0.02 µM)",93.8%,100%,92.8%,127%,77.6%,102%,92.2%,101%,72.9%,88.5%
"O=C(O)[C@@H]1[O][Sb](=[O])([O][Sb]2(=[O])[O][C@H]([C@H](O)CO)[C@H](O)[C@H](C(=O)O)[O]2)[O][C@H]([C@H](O)CO)[C@@H]1O (stereo not given in full) [stibogluconate] + O=C(O)C(=O)Nc1sc2c(c1C(=O)O)CCNC2 [TCS401] (first compound 2 µM, partner dose 1.66667 µM)",98.7%,96.8%,106%,116%,90.5%,89.6%,91.6%,76.1%,104%,94.9%
"O=C(Nc1cc(C(F)(F)F)cc(C(F)(F)F)c1)c1cc(Cl)ccc1O + CCN(CC)CCCCNc1ncc2cc(-c3cc(OC)cc(OC)c3)c(NC(=O)NC(C)(C)C)nc2n1 [PD173074] (first compound 0.016 µM, partner dose 0.1 µM)",104%,108%,104%,111%,100%,104%,97.5%,109%,85.2%,100%
"O=C(Nc1cc(C(F)(F)F)cc(C(F)(F)F)c1)c1cc(Cl)ccc1O + Oc1cc(-c2nc(-c3ccccc3)[nH]c2-c2ccncc2)ccc1Cl [L779450] (first compound 0.016 µM, partner dose 0.2 µM)",77.8%,101%,115%,84.2%,82.7%,87%,90.6%,111%,84.4%,64.4%
"O=C(O)c1ccc2c(c1)nc(Nc1cccc(Cl)c1)c1ccncc12 + O=C(O)c1ccc(-c2c[nH]c3ncc(-c4ccccc4)cc23)cc1C1CCCC1 [GSK650394] (first compound 0.4 µM, partner dose 0.16 µM)",92.5%,82.3%,97.9%,113%,94.1%,89.3%,100%,96.6%,75.9%,99.3%
